Whole data set: some 33,000 sequences, median “E-score (-0.5 to 0.5)” near -0.011, cut for the highest 2% near 0.28. Some of the results follow.
molecular target: T1, Gcr1 (UniProt P07261); experiment: PBM E-score (8-mer binding enrichment) (E-score (-0.5 to 0.5)); higher = stronger / more preferred TF binding; most listed sequences are background and not binding sites; conditions: protein concentration: 100 nM; construct: GST-full length
T1 sequence: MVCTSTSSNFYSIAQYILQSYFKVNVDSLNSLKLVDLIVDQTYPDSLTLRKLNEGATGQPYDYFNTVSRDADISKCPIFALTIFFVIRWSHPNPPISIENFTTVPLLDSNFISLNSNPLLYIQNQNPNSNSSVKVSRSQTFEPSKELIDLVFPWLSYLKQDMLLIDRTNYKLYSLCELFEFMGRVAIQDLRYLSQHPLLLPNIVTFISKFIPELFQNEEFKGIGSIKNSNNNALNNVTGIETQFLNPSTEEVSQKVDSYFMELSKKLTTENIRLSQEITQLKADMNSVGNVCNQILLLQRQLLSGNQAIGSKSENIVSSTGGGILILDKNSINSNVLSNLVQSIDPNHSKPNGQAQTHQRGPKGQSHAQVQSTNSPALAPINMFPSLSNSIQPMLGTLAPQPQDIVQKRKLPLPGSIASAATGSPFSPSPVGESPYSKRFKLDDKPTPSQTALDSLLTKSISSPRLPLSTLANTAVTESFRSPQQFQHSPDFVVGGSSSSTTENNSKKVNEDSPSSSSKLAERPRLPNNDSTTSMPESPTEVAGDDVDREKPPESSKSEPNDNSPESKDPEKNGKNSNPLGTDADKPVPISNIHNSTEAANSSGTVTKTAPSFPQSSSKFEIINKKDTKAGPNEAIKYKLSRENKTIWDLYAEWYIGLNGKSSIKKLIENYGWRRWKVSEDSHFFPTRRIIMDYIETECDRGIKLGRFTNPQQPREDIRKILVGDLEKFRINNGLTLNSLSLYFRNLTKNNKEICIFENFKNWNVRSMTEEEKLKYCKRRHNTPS
Method in brief: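 Bound GST-tagged yeast transcription factors, applied at about 100-200 nM to double-stranded universal all-10-mer Agilent arrays, were detected with fluorescent anti-GST. Scans were normalised with masliner. A modified Wilcoxon-Mann-Whitney statistic, the E-score, was assigned to each ungapped eight-base word pooled with its reverse complement by the Universal PBM Analysis Suite.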

Sequence	PBM E-score
ATTTTTCA	0.1
AGAAGAGA	0.01
AAGAAGTC	0.0767
ATCGATCC	-0.0388
CATGCGCG	-0.262
ATGCTTGG	-0.112
CTACGAGA	0.169
AACTTCCC	-0.0101
GCGACCGA	0.0959
CTTCTGTA	0.0812
CAGTTTCG	-0.0405
AATGGAGC	0.0723
GGTCCGAC	-0.223
GGGTTAAA	-0.00202
ATCATGGA	0.171
GCCGCGGC	0.181
AACGCACA	-0.103
CGAGCAGA	-0.16
AAGTTTGC	0.0558
CGAGAAAG	-0.122
AACTCGTA	-0.0446
CGCTCTGC	-0.126
CATAGCGG	-0.0193
ATTTCCTC	-0.197
TCGCACGA	-0.0304

Sequence	PBM E-score
GGGACTCA	-0.0478
CGGGCCCC	0.161
AGGCGCCA	0.268
GGTGACAC	-0.0256
CCGAGGGA	-0.183
ACCAGATG	0.183
CCAGACCC	0.0239
CAGATTCG	0.037
AAAAACTT	0.0377
AGTTTGGC	0.0104
TCAAGACA	0.0193
CCAAGTCA	-0.049
AATAAAAG	0.24
AATCATGA	-0.00347
CCTGCTCC	-0.148
CTCGAAAC	-0.0423
CCGCCCCC	-0.248
AATACAAG	0.293
CAGCTCCA	0.0768
CAAACAGG	-0.0114
CAGCGGGC	0.0112
CAAATACA	0.04
GCGATAGC	-0.162
TAGAGAAA	0.0745
CTAATTTC	0.189

Sequence	PBM E-score
CTGTGGGA	0.0471
CACACGGG	-0.157
AAGCAAAA	-0.075
GCTTCATA	-0.0609
CCATAGGA	0.023
TCCAGGAA	0.217
AAATTCAG	0.169
CTTTTGCA	-0.0174
CACCCAAA	0.147
CTGCGTAA	0.18
ACCAATAA	0.0976
ACTGCTGC	-0.133
GTCGGAGA	0.0462
CTTGACGC	-0.067
TCCCCTAA	0.206
TCGCAAGA	-0.0987
GTGCAAAA	-0.0996
AGTCAGCG	0.0668
GAACCACC	0.0395
ATCCAGAG	0.103
AAGATAGA	-0.0016
CAGGTATA	-0.0414
GGCCCCAA	0.0424
CGCTAGGC	-0.216
CATATCAA	0.109

Sequence	PBM E-score
TACGTACA	-0.146
AAGTCAGG	0.131
ACCAGCTG	-0.0501
ACTTGCGG	0.00462
AGGTACGC	-0.127
CCTTATCG	-0.104
GCTTCGCC	0.00109
AGCCGAAT	0.216
ACGTATTC	0.123
AACGCTGG	-0.125
CTCCCCAC	0.0911
ATTCGTAG	0.152
CACGCGGG	0.113
CGAGGCTC	-0.225
GTAAACCA	-0.122
CTAGCGGA	-0.0186
AACCGAGA	-0.0782
AGTAATGC	0.0862
GGTAAGAA	0.0962
ATCCTCTA	0.18
TCGACAAA	-0.0918
GCTAGCCC	-0.133
ATTTTCAG	0.225
CCGTGCGC	-0.199
AGGAGACC	-0.111

Sequence	PBM E-score
GCAGCCCC	0.229
ATGGCGCG	0.116
CGTGTGCC	-0.152
ATGGCTAG	-0.182
ATAGCTTA	-0.203
AACGTCGG	-0.117
CATGATGC	0.0288
AGATGCAT	-0.0722
CAACTCAG	-0.108
GGATATTA	0.0353
ACCTTACG	-0.103
GGCTATTA	0.0437
CTAGTACA	-0.0271
AGGTGAGA	-0.123
AGAGCCGA	0.0858
AGCTTTCC	-0.195
ATCCGAAC	0.124
GTGGACGA	-0.0657
AAACAGCG	0.0446
ACGTGATG	-0.123
ACCACGAA	0.0394
CTCTGTGA	-0.136
CGTACCAA	-0.0421
ATAACGAT	-0.0472
AGGGAATC	0.0666

Sequence	PBM E-score
CATGTAGG	0.1
ATGGATAA	-0.189
TTTAAAAA	0.12
GACTATTA	0.164
AGGAAAAC	-0.0801
CTCACTGC	-0.1
ATGGCAGC	0.0656
CAAGTATA	-0.0848
CATACGGG	0.079
CACGGAGG	-0.1
ACTGCGCG	-0.181
AAATACTG	0.188
AGCCGTCG	-0.216
AGGGAAGA	-0.198
CAGTTCCC	0.165
CAGTTGGG	-0.0256
ATAATCGA	0.141
ACTTCCGC	0.0681
AGAGTGGG	0.177
CGCTGGAC	0.0666
AGTTTCAC	0.0173
CACCAGTG	0.036
CCATCGAA	-0.152
CAGACTAG	-0.174
CTCAGGAG	-0.0598

Sequence	PBM E-score
ACGGCTGC	-0.014
ACCTGTGG	-0.0729
CTATTGCA	-0.00827
ACATGACT	-0.0743
CGCAGTCA	-0.134
ACCGTCGC	-0.148
ACGCATAC	-0.198
ACCCTCGA	-0.164
AAAATGAC	-0.0701
ATTGAGCA	0.0737
AAGCTGTA	0.0419
AGAACCCT	-0.103
CAAATAGA	0.251
CTCCTAGA	-0.109
AGCTGTTA	-0.094
GTACAAGA	0.186
CAATTCCC	-0.117
CATTGCAC	0.0876
TGCGTCAA	0.148
TCCGACGA	-0.121
ATAACCCA	0.106
GATTGTCA	-0.185

Reference: the supplement of paper PMC3334620
